According to the supplement of paper PMC4604168 (melanoma cell lines):
The other results are listed elsewhere or left out. Most values come without repeats; read them as rough.

What was measured:
Assay in all cases: cell count relative to DMSO control; melanoma cells; higher = more viable cells
Details in all cases: library dose: low library concentration; 72 h
WM115 = test system: WM115
WM1716 = test system: WM1716
WM1745 = test system: WM1745
WM3526 = test system: WM3526
WM3619 = test system: WM3619
WM451Lu = test system: WM451Lu
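Further: cell number obtained by counting DAPI-stained nuclei in high-throughput microscope images with image analysis software, screen run in 1,536-well plates.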

For `CCCS(=O)(=O)Nc1ccc(F)c(C(=O)c2c[nH]c3ncc(Cl)cc23)c1F` + COc1ccc(-c2ccc3c(N4CCOCC4)nc(N4C[C@@H](C)O[C@@H](C)C4)nc3n2)cc1CO [KU0063794] (first compound 0.08 µM, partner dose 0.02 µM), the cell count (WM115) was 100%, the cell count (WM1716) was 127% and the cell count (WM1745) was 118%. It also gave a cell count (WM3526) of 75.2%, a cell count (WM3619) of 88% and a cell count (WM451Lu) of 85.6%.
With `C=C(c1ccc(C(=O)O)cc1)c1cc2c(cc1C)C(C)(C)CCC2(C)C` [Bexarotene] + Nc1nc(F)nc2c1ncn2[C@@H]1O[C@H](CO)[C@@H](O)[C@@H]1O [fludarabine] (first compound 2 µM, partner dose 0.2 µM) the cell count (WM115) was 96.9%, the cell count (WM1716) was 90.5% and the cell count (WM1745) was 86.3%. The cell count (WM3526) was 39.2%, the cell count (WM3619) was 101% and the cell count (WM451Lu) was 62.6%.
Work on `CCCS(=O)(=O)Nc1ccc(F)c(C(=O)c2c[nH]c3ncc(Cl)cc23)c1F` + Cc1nc(Nc2ncc(C(=O)Nc3c(C)cccc3Cl)s2)cc(N2CCN(CCO)CC2)n1 [dasatanib] (first compound 0.08 µM, partner dose 0.004 µM) yielded a cell count (WM115) of 88.3%, a cell count (WM1716) of 86.5% and a cell count (WM1745) of 68.9%. It also gave a cell count (WM3526) of 74.8%, a cell count (WM3619) of 81.3% and a cell count (WM451Lu) of 96.5%.
In the case of `NC1(c2ccc(-c3nc4ccn5c(=O)[nH]nc5c4cc3-c3ccccc3)cc2)CCC1` + CO[C@H]1C[C@@H]2CC[C@@H](C)[C@@](O)(O2)C(=O)C(=O)N2CCCC[C@H]2C(=O)O[C@H]([C@H](C)C[C@@H]2CC[C@@H](OCCO)[C@H](OC)C2)CC(=O)[C@H](C)/C=C(\C)[C@@H](O)[C@@H](OC)C(=O)[C@H](C)C[C@H](C)/C=C/C=C/C=C/1C [everolimus] (first compound 0.4 µM, partner dose 0.02 µM), the cell count (WM115) is reported as 65.7%, the cell count (WM1716) is reported as 60.3% and the cell count (WM1745) is reported as 85.8%. For the same compound, the cell count (WM3526) was 52%, the cell count (WM3619) was 59.6% and the cell count (WM451Lu) was 69.5%.
Work on `C=C(c1ccc(C(=O)O)cc1)c1cc2c(cc1C)C(C)(C)CCC2(C)C` [Bexarotene] + COc1ccc(-c2ccc3c(N4CCOCC4)nc(N4C[C@@H](C)O[C@@H](C)C4)nc3n2)cc1CO [KU0063794] (first compound 2 µM, partner dose 0.02 µM) yielded a cell count (WM115) of 95.8%, a cell count (WM1716) of 86.5% and a cell count (WM1745) of 82.9%. The cell count (WM3526) was 93.3%, the cell count (WM3619) was 91% and the cell count (WM451Lu) was 90.1%.
Work on `CS(=O)(=O)c1ccc(C(=O)Nc2ccc(Cl)c(-c3ccccn3)c2)c(Cl)c1` [vismodegib] + O=C(O)[C@@H]1[O][Sb](=[O])([O][Sb]2(=[O])[O][C@H]([C@H](O)CO)[C@H](O)[C@H](C(=O)O)[O]2)[O][C@H]([C@H](O)CO)[C@@H]1O [stibogluconate] (first compound 1 µM, partner dose 2 µM) yielded a cell count (WM115) of 108%, a cell count (WM1716) of 108% and a cell count (WM1745) of 90.7%. For the same compound, the cell count (WM3526) was 117%, the cell count (WM3619) was 92.4% and the cell count (WM451Lu) was 95.8%.
Compound `NC1(c2ccc(-c3nc4ccn5c(=O)[nH]nc5c4cc3-c3ccccc3)cc2)CCC1` + Nc1ncn([C@H]2C[C@H](O)[C@@H](CO)O2)c(=O)n1 [decitabine] (first compound 0.4 µM, partner dose 0.1 µM) has a cell count (WM115) of 68.8%, a cell count (WM1716) of 79.3% and a cell count (WM1745) of 89.7%. For the same compound, the cell count (WM3526) was 72.4%, the cell count (WM3619) was 101% and the cell count (WM451Lu) was 102%.
Work on `CS(=O)(=O)c1ccc(C(=O)Nc2ccc(Cl)c(-c3ccccn3)c2)c(Cl)c1` [vismodegib] + Oc1cc(-c2nc(-c3ccccc3)[nH]c2-c2ccncc2)ccc1Cl [L779450] (first compound 1 µM, partner dose 0.2 µM) yielded a cell count (WM115) of 88.9%, a cell count (WM1716) of 92.8% and a cell count (WM1745) of 83.7%. The cell count (WM3526) was 78.5%, the cell count (WM3619) was 102% and the cell count (WM451Lu) was 94.5%.
With `NC1(c2ccc(-c3nc4ccn5c(=O)[nH]nc5c4cc3-c3ccccc3)cc2)CCC1` + CO[C@@H]1[C@H](N(C)C(=O)c2ccccc2)C[C@H]2O[C@]1(C)n1c3ccccc3c3c4c(c5c6ccccc6n2c5c31)C(=O)NC4 [Midostaurin] (first compound 0.4 µM, partner dose 0.08 µM) the cell count (WM115) was 65.9%, the cell count (WM1716) was 68.8% and the cell count (WM1745) was 53.7%. For the same compound, the cell count (WM3526) was 53.3%, the cell count (WM3619) was 87.3% and the cell count (WM451Lu) was 129%.
In the case of `NC1(c2ccc(-c3nc4ccn5c(=O)[nH]nc5c4cc3-c3ccccc3)cc2)CCC1` + OCc1c[nH]c2ccccc12 [Indole-3-carbinol] (first compound 0.4 µM, partner dose 0.8 µM), the cell count (WM115) is reported as 80.8%, the cell count (WM1716) is reported as 87.4% and the cell count (WM1745) is reported as 94.4%. It also gave a cell count (WM3526) of 72.3%, a cell count (WM3619) of 87.8% and a cell count (WM451Lu) of 93.3%.
`CS(=O)(=O)c1ccc(C(=O)Nc2ccc(Cl)c(-c3ccccn3)c2)c(Cl)c1` [vismodegib] + Cn1nnc2c(C(N)=O)ncn2c1=O [temozolomide] (first compound 1 µM, partner dose 2 µM) gave a cell count (WM115) of 109%, a cell count (WM1716) of 94.5% and a cell count (WM1745) of 124%. For the same compound, the cell count (WM3526) was 84.7%, the cell count (WM3619) was 123% and the cell count (WM451Lu) was 111%.
With `CCCS(=O)(=O)Nc1ccc(F)c(C(=O)c2c[nH]c3ncc(Cl)cc23)c1F` + COc1cc2c(Oc3ccc4[nH]c(C)cc4c3F)ncnc2cc1OCCCN1CCCC1 [cediranib] (first compound 0.08 µM, partner dose 0.4 µM) the cell count (WM115) was 88.6%, the cell count (WM1716) was 92.3% and the cell count (WM1745) was 82.7%. The cell count (WM3526) was 52%, the cell count (WM3619) was 120% and the cell count (WM451Lu) was 103%.
